Laboratory results taken from PubChem BioAssay AID1347120 (National Center for Advancing Translational Sciences (NCATS), 2019).
Screen size: about 390,000 compounds; about 930 (0.24%) were called active. The shares of active, inactive and inconclusive entries below differ from those in the screen. The call rests on the fitted dose curve; in most records, active means well fitted activation curve with a large enough effect; inconclusive means small, poorly fitted or top-dose-only effect; inactive means no such curve, though single readings can be large or run the other way. Potencies of inconclusive entries are doubtful fits and often do not repeat.

assay: qHTS for Suppressors of FUS Proteinopathy: Primary screen using FUS-linked yeast assay; further: nearly all actives have a fitted effect of over 55% in size; details: S. cerevisiae FUS-expressing, OD600, 24 h; Potency: growth rescue; series mostly up to 76.6 µM
In short: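 Compound concentration series was pinned onto galactose-induced FUS-expressing yeast seeded at OD 0.005. Plates sat 24hr at 30C; absorbance at 600 nm gave growth. DMSO served as background control.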
Potency means the concentration at half of the fitted maximal effect; tags describe the fitted curve by direction and shape.

Question: With `CC(=O)c1ccc(C(=O)N(Cc2cccnc2)c2nc3c(C)c(C)ccc3s2)cc1` as the compound, how does the Potency read?
Answer: The Potency was inconclusive: 35.5 µM [activator, single point].

Question: With `COCCOC(=O)c1c(C)oc2ccc(OCc3ccccc3)cc12` as the compound, how does the Potency read?
Answer: The Potency was “inactive”.

Question: Which Potency does the source give for `CCOC(=O)CSc1nc(-c2ccc3c(c2)OCO3)ccc1C#N` here?
Answer: Its Potency is “inactive”.

Question: With `CC(C)(C)OC(=O)NCCCC[C@H](NC(=O)c1nc[nH]c1C(=O)N1CCc2ccccc2C1)C(=O)OC(C)(C)C` as the compound, how does the Potency read?
Answer: The Potency was inconclusive: 25.1 µM [activator, partial curve, poor fit].

Question: With `CC(C)Cn1cnc2c1c(=O)n(CC(=O)NC(=O)NC(C)(C)C)c(=O)n2Cc1ccccc1` as the compound, how does the Potency read?
Answer: The Potency was inconclusive: 20 µM [activator, single point].

Question: Which Potency does the source give for `COC(=O)c1ccc(CSc2n[nH]c(=S)s2)o1` here?
Answer: Its Potency is “inactive”.

Question: With `Nc1nnc(SCC(=O)NNC(=O)c2ccccc2)s1` as the compound, how does the Potency read?
Answer: The Potency was “inactive”.

Question: Which Potency does the source give for `COC(=O)CN1CCN(C(=O)c2csc(-c3ccccc3)n2)CC1` here?
Answer: Its Potency is “inactive”.

Question: Which Potency does the source give for `Cc1c(Cl)cccc1NS(=O)(=O)c1ccc(NS(=O)(=O)c2ccc3c(c2)OCCO3)cc1` here?
Answer: The Potency was active: 22.4 µM.

Question: Which Potency does the source give for `Cc1ccc(-c2ccc(CN3C(C(C)C)C(=O)N(Cc4cn(CCC5OCCO5)nn4)CCS3(=O)=O)cc2)cc1` (stereo unspecified) here?
Answer: Its Potency is inconclusive: 28.2 µM [activator, single point].

Question: With `N#CCCN(C(=O)COC(=O)COc1ccccc1Cc1ccccc1)c1ccccc1` as the compound, how does the Potency read?
Answer: Its Potency is inconclusive: 8.91 µM [activator, partial curve, poor fit].

Question: For `COc1ccccc1CNC(=O)c1ccc(-n2c(C)cc3c2CCCC3)cc1`, which Potency is on record?
Answer: The Potency was inconclusive: 28.2 µM [activator, partial curve, poor fit].

Question: Which Potency does the source give for `COc1ccc(CNC(=O)c2ccc(-c3ccc(F)c(F)c3)c3ccoc23)cc1OC` here?
Answer: The Potency was inconclusive: 39.8 µM [activator, partial curve, poor fit].

Question: Which Potency does the source give for `COc1ccccc1N(C)S(=O)(=O)c1ccc(C(=O)Nc2ccc(N3CCOCC3)cc2)cc1` here?
Answer: The Potency was inconclusive: 20 µM [activator, partial curve, poor fit].

Question: Which Potency does the source give for `CCOC(=O)C1=C(CC)Nc2ccccc2N/C1=N\S(=O)(=O)c1cc(Br)ccc1Br` here?
Answer: The Potency was inconclusive: 3.98 µM [activator, full curve].

Question: For `CCOCCCn1c(=N)c(C(=O)NC(C)c2ccccc2)cc2c(=O)n3cccc(C)c3nc21` (stereo unspecified), which Potency is on record?
Answer: Its Potency is “inactive”.

Question: For `CN(C(=O)c1ccc2c(c1)N(Cc1ccc(F)cc1)C(=O)c1ccccc1S2(=O)=O)C1CCCCC1`, which Potency is on record?
Answer: The Potency was inconclusive: 22.4 µM [activator, partial curve, poor fit].

Question: With `CCOC(=O)c1ccc(NC(=O)c2nc[nH]c2C(=O)N[C@@H](Cc2ccccc2)C(=O)OC(C)(C)C)cc1` as the compound, how does the Potency read?
Answer: Its Potency is inconclusive: 14.1 µM [activator, partial curve].

Question: Which Potency does the source give for `c1ccc(-c2nnc(N3CCN(c4ccccc4)CC3)nc2-c2ccccc2)cc1` here?
Answer: Its Potency is “inactive”.

Question: For `Clc1cccc(CSc2nnc(-c3ccccn3)n2Cc2ccco2)c1`, which Potency is on record?
Answer: Its Potency is inconclusive: 50.1 µM [activator, single point].

Question: Which Potency does the source give for `N#Cc1c(-c2ccccc2)c(-c2ccccc2)nn(CC(=O)NNC(=O)Nc2ccc(Cl)cc2)c1=O` here?
Answer: Its Potency is inconclusive: 50.1 µM [activator, single point].

Question: With `COc1ccc(NC(=O)N(C)C[C@@H]2Oc3cc(C#CCN(C)C)ccc3S(=O)(=O)N([C@H](C)CO)C[C@H]2C)cc1` as the compound, how does the Potency read?
Answer: Its Potency is “inactive”.

Question: With `COc1ccc(N2C(=O)CCSC23C(=O)N(Cc2ccc(F)cc2)c2ccccc23)cc1` (stereo unspecified) as the compound, how does the Potency read?
Answer: The Potency was inconclusive: 28.2 µM [activator, single point].

Question: With `Cc1ccc(-c2onc(C)c2C)cc1S(=O)(=O)Nc1cccc(Cl)c1C` as the compound, how does the Potency read?
Answer: Its Potency is “inactive”.

Question: For `CCc1nc2ccc(C(=O)NCc3ccc(OC)cc3)cn2c1N(CCC(C)C)CCN(C)C`, which Potency is on record?
Answer: Its Potency is inconclusive: 2.82 µM [activator, full curve].

Question: For `O=S(=O)(c1ccc(Br)cc1)c1nnn2c1nc(NCCc1ccccc1)c1sccc12`, which Potency is on record?
Answer: The Potency was “inactive”.

Question: With `CCN1CCN(C(=O)c2ccc3c(c2)c(C)c(C)n3Cc2ccccc2)CC1` as the compound, how does the Potency read?
Answer: The Potency was “inactive”.

Question: For `Cc1ccc(CCNC(=O)CCn2nc(-c3ccc(Cl)cc3)ccc2=O)cc1`, which Potency is on record?
Answer: Its Potency is “inactive”.

Question: Which Potency does the source give for `CCOC(=O)c1sc(N2C(=O)C(O)=C(C(=O)c3ccco3)C2c2ccc([N+](=O)[O-])cc2)nc1C` (stereo unspecified) here?
Answer: The Potency was inconclusive: 20 µM [activator, partial curve, poor fit].

Question: With `O=C(Nc1ccc(-c2nc3cc(NC(=O)c4ccc(Cl)cc4)ccc3o2)cc1)c1ccc(Cl)cc1` as the compound, how does the Potency read?
Answer: Its Potency is “inactive”.

Question: Which Potency does the source give for `CC(C)(C)OC(=O)C[C@@H]1C/C=C\C[C@H](CC(=O)N[C@@H](CO)Cc2ccccc2)C(=O)N[C@H](C(C)(C)C)COC1=O` here?
Answer: Its Potency is inconclusive: 25.1 µM [activator, partial curve, poor fit].

Question: Which Potency does the source give for `CC(C)c1ccc(Nc2nc(N3CCOCC3)nc(N3CCOCC3)n2)cc1` here?
Answer: Its Potency is “inactive”.

Question: With `COC(=O)c1sccc1S(=O)(=O)N(CC(=O)Nc1ccc(C)c(F)c1)c1ccc(C)c(C)c1` as the compound, how does the Potency read?
Answer: Its Potency is inconclusive: 44.7 µM [activator, single point].

Question: Which Potency does the source give for `COc1ccc(/C=C2\CCCC(C(=O)C(F)(F)F)=C2O)cc1` here?
Answer: Its Potency is “inactive”.

Question: With `CCOC(=O)[C@]12CCCC=C1N(Cc1ccc3c(c1)OCO3)C(=O)[C@H](CC(=O)N1CCN(C(=O)C3CC3)CC1)C2` as the compound, how does the Potency read?
Answer: The Potency was “inactive”.

Question: For `O=C(c1ccc2c(c1)N(Cc1cccc(Cl)c1)C(=O)c1ccccc1S2(=O)=O)N1CCN(c2ccccn2)CC1`, which Potency is on record?
Answer: The Potency was inconclusive: 28.2 µM [activator, single point].

Question: Which Potency does the source give for `CN(CC(=O)Nc1ccc(N2CCOCC2)cc1)C(=O)CC(c1ccccc1)c1ccccc1` here?
Answer: Its Potency is inconclusive: 31.6 µM [activator, partial curve, poor fit].

Question: Which Potency does the source give for `O=C(CNc1ccc(Br)cc1)c1ccc(O)cc1` here?
Answer: The Potency was “inactive”.

Question: With `CCCNc1ncnc2c1c(-c1ccccc1)cn2-c1ccc(OCC)cc1` as the compound, how does the Potency read?
Answer: The Potency was inconclusive: 31.6 µM [activator, single point].

Question: For `Cc1cccc(NC(=O)c2ccc(Cl)c(S(=O)(=O)N3CCc4ccccc43)c2)n1`, which Potency is on record?
Answer: Its Potency is inconclusive: 0.891 µM [activator, full curve, poor fit].

Question: With `O=C(CCn1c(=O)[nH]c2ccccc2c1=O)NCCCN1CCN(c2cccc(Cl)c2)CC1` as the compound, how does the Potency read?
Answer: The Potency was inconclusive: 39.8 µM [activator, single point].
